# According to the supplement of paper PMC11417369:
# The list shows a part of the results.
# System: PF3D7_0420300 AP2 domain 1 (GST-tagged)
# Experiment: gcPBM binding intensity (ln(normalized median fluorescence intensity)); higher = stronger DNA binding
# Method in brief: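 The binding buffer was 1× PBS containing 1% milk, 0.2 mg/ml BSA, 0.5% salmon testes DNA and 0.03% Triton X-100. In it, GST-tagged P. falciparum DNA-binding domains expressed in E. coli were applied for 1 h to an Agilent 4 × 180k array of primer-extended double-stranded 36-bp intergenic genomic probes plus negative controls. Binding intensity, read with Alexa488 anti-GST antibody and a 488 nm scan, is the highest Masliner-normalised natural-log median intensity across replicate spots of either probe orientation.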
row,Sequence,gcPBM binding intensity (ln)
1,TATTTATGTATATGCTGTACGCATTTGTGAAACATA [XGTACX_site4688],9.06
2,AACCAATTAGAAGGATCCAGAACTTATTTGTTTTTA [CACACA_negctrl_site1744],9.11
3,TACAAGCCCAATTCAAGTACATATATATATATATAT [XGTACX_site5569],9.21
4,AGTTTGTCAATCAACACACACCTATTTATTATATAT [CACACA_site6030],9.59
5,ATATTTCGTCTAAAAAGTACACAACAATAAAAAGTA [XGTACX_site6668],9.41
6,AAAAAACACAGACACACACACATATACATACATACA [CACACA_site2666],10.2
7,TTTTTTAAATAATATTGTACAAAAAATGTATAAATA [XGTACX_site3010],8.98
8,TTAGGTTTATACACTACACACATTATTCATAAAAAA [CACACA_site871],9.43
9,TATATATATTTAAGGTGTACATAAATAACAAAATAT [XGTACX_site2641],9.42
10,AAGTGTATACAGAAGAGTACAAACAATTTTTTTCTT [XGTACX_site7387],9.29
11,AAAATTATAAATCTTGCACACAAAAAAAATAATAAA [CACACA_site8771],9.44
12,TTTTCATTTATGTATATATTTATTTTGATTTAATGT [GTGCAC_negctrl_site607],9.29
13,AATTATTTTATGTGAGGTACACCACACATGAAGGGG [XGTACX_site8450],9.46
14,TAAATATATTCAATCACACACATTCGTTTTTTTTTT [CACACA_site234],9.6
15,TATTGTTATGTCGTTATTAACTTTCTTTAATTAATT [CACACA_negctrl_site174],9.47
16,AAATATTCATAGTATACACACATTTATATATAATCA [CACACA_site771],9.45
17,TGAAAGTTCAATAATTGTACATGTGGAAATTCATAC [XGTACX_site1378],9.24
18,ATAAAAAAATAAATTAGTACATATATATATATATAT [XGTACX_site6971],9.13
19,TTACGCATACTAATTACACACAAATAGATGAATATA [CACACA_site1338],9.43
20,ATTTTTTTTTCTTTCGCACACGTGAAAGAATTTCTA [CACACA_site2052],9.11
21,TTAAATTAAAACAAATGTACAAAGTGCATATTTTTT [XGTACX_site8143],8.98
22,ATAATTTAATACTAGTGTACAGAAAAAAAAAAAAAA [XGTACX_site6756],9.09

row,Sequence,gcPBM binding intensity (ln)
1,GTTGAACATAGATGCACACACATAAAATAAAAAAAA [CACACA_site5353],9.6
2,ACATATATATATAAATATATATATATATAAATATAT [CACACA_negctrl_site895],8.96
3,TGTTTAAATTTTTTGTTTTTTTTTTTATAAAGCAAA [TGCATGCA_negctrl_site313],8.91
4,TATATTTTTTTAAAAAGTACTTTGTATATATATATA [XGTACX_site1300],9.05
5,TGAAGGTCAGTTCACAGTACCCAGTAACTCTACGGA [XGTACX_site2554],9.06
6,TTGTTGTTATTTAAAACACACATCAATCATCTTAAC [CACACA_site1142],9.22
7,TAATATATATTATTATGTACATATATTGATTCCTTG [XGTACX_site6830],9.19
8,TATTTATTAATATGTACACACATCAACCATATTAAC [CACACA_site7001],9.59
9,TTCTTATATATATACACACACAAAATATCTACAATG [CACACA_site736],9.79
10,CCAAAATACATTAAACGTACATGTCCTAATAAGATA [XGTACX_site21],9.15
11,TTGTTTTTATAAATATTATTACAATGAAAAAAAAAA [TGCATGCA_negctrl_site185],8.92
12,AAAAAAAAAAAAAAAAGTACGTATCAAAGCATCAAA [XGTACX_site880],9.42
13,AATCTGATCTTTTAAAGTACACAAAAAAAAAAAAAA [XGTACX_site115],8.74
14,AGGTTATAAATAAATACACACATACAAAAATATGAC [CACACA_site4773],9.86
15,CATATATATATATGTACACACATTAATAAAAAAAAA [CACACA_site3230],9.46
16,GTTTAACTGTTTTATACACACAATGTATACAATAAA [CACACA_site2959],9.48
17,AATGAACACCTAAAATGTACGTACAAATATATTTTA [XGTACX_site7067],9.31
18,AATGAATAAATAAACACACACACATATATAAATATG [CACACA_site6160],9.97
19,AAAACAAACAGACACACACACATATATATATATATA [CACACA_site3655],9.79
20,ATGTTTAATTTTTTTTTGTCCCTATAGAAGTGTCAA [CACACA_negctrl_site1103],8.98
21,TTTGAGTGCACATACACACAGACATACATTTAAATA [CACACA_site3403],9.55
22,ATAACCTAATAATACACACACATGAATATATAGAAT [CACACA_site963],10.1
